# Source: the supplement of paper PMC8728848
# This is one part of the list.
# What was measured:
# Assay in all cases: glycan array binding signal (z-score within array); higher = stronger binding
# Conditions in all cases: glycan notation: IUPAC condensed, linker removed
# [1] = biological target: Neu5Ac(a2-3)Gal(b1-3)[Fuc(a1-4)]GlcNAc
# How it was run: (§1)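 Negative Z-scores can be read as non-binding. The Z-score is calculated within each array and then averaged across arrays of one protein sequence at different concentrations or buffers and across linkers. Arrays, 3228 in all, were curated from the Consortium for Functional Glycomics database and kept only where the protein sequence was available.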
# [2] = biological target: Neu5Ac(a2-3)Gal(b1-3)[Fuc(a1-4)]GlcNAc(b1-3)Gal(b1-3)[Fuc(a1-4)]GlcNAc
# How it was run: as §1
# [3] = biological target: Neu5Ac(a2-3)Gal(b1-3)[Fuc(a1-4)]GlcNAc(b1-3)Gal(b1-4)[Fuc(a1-3)]GlcNAc
# How it was run: as §1
# [4] = biological target: Neu5Ac(a2-3)Gal(b1-3)[GlcNAc(b1-6)]GalNAc
# How it was run: as §1
# [5] = biological target: Neu5Ac(a2-3)Gal(b1-3)[Neu5Ac(a2-6)]GalNAc
# How it was run: as §1
# [6] = biological target: Neu5Ac(a2-3)Gal(b1-3)[Neu5Ac(a2-6)]GlcNAc(b1-3)[Fuc(a1-3)[Gal(b1-4)]GlcNAc(b1-6)]Gal(b1-4)Glc
# How it was run: as §1
# [7] = biological target: Neu5Ac(a2-3)Gal(b1-3)]Neu5Ac(a2-3)Gal(b1-4)]GlcNAc
# How it was run: as §1
# Neu5Ac(a2-3)Gal(b1-4)Glc = biological target: Neu5Ac(a2-3)Gal(b1-4)Glc
# How it was run: as §1
# [8] = biological target: Neu5Ac(a2-3)Gal(b1-4)GlcNAc
# How it was run: as §1
# [9] = biological target: Neu5Ac(a2-3)Gal(b1-4)GlcNAc(b1-2)Man
# How it was run: as §1
# [10] = biological target: Neu5Ac(a2-3)Gal(b1-4)GlcNAc(b1-2)Man(a1-3)[GlcNAc(b1-4)][Neu5Ac(a2-3)Gal(b1-4)GlcNAc(b1-2)Man(a1-6)]Man(b1-4)GlcNAc(b1-4)GlcNAc
# How it was run: as §1
# [11] = biological target: Neu5Ac(a2-3)Gal(b1-4)GlcNAc(b1-2)Man(a1-3)[Neu5Ac(a2-3)Gal(b1-4)GlcNAc(b1-2)Man(a1-6)]Man(b1-4)GlcNAc(b1-4)GlcNAc
# How it was run: as §1
# [12] = biological target: Neu5Ac(a2-3)Gal(b1-4)GlcNAc(b1-2)Man(a1-3)[Neu5Ac(a2-3)Gal(b1-4)GlcNAc(b1-2)Man(a1-6)]Man(b1-4)GlcNAc(b1-4)[Fuc(a1-6)]GlcNAc
# How it was run: as §1
# [13] = biological target: Neu5Ac(a2-3)Gal(b1-4)GlcNAc(b1-2)Man(a1-3)[Neu5Ac(a2-6)Gal(b1-4)GlcNAc(b1-2)Man(a1-6)]Man(b1-4)GlcNAc(b1-4)GlcNAc
# How it was run: as §1
# [14] = biological target: Neu5Ac(a2-3)Gal(b1-4)GlcNAc(b1-2)[Neu5Ac(a2-3)Gal(b1-4)GlcNAc(b1-4)]Man(a1-3)[GlcNAc(b1-4)][Neu5Ac(a2-3)Gal(b1-4)GlcNAc(b1-2)[Neu5Ac(a2-3)Gal(b1-4)GlcNAc(b1-6)]Man(a1-6)]Man(b1-4)GlcNAc(b1-4)GlcNAc
# How it was run: as §1
# [15] = biological target: Neu5Ac(a2-3)Gal(b1-4)GlcNAc(b1-2)[Neu5Ac(a2-3)Gal(b1-4)GlcNAc(b1-4)]Man(a1-3)[GlcNAc(b1-4)][Neu5Ac(a2-3)Gal(b1-4)GlcNAc(b1-4)Man(a1-6)]Man(b1-4)GlcNAc(b1-4)GlcNAc
# How it was run: as §1
# [16] = biological target: Neu5Ac(a2-3)Gal(b1-4)GlcNAc(b1-2)[Neu5Ac(a2-3)Gal(b1-4)GlcNAc(b1-6)]Man(a1-6)[Neu5Ac(a2-3)Gal(b1-4)GlcNAc(b1-2)Man(a1-3)]Man(b1-4)GlcNAc(b1-4)GlcNAc
# How it was run: as §1
# [17] = biological target: Neu5Ac(a2-3)Gal(b1-4)GlcNAc(b1-2)[Neu5Ac(a2-3)Gal(b1-4)GlcNAc(b1-6)]Man(a1-6)[Neu5Ac(a2-3)Gal(b1-4)GlcNAc(b1-2)Man(a1-3)][GlcNAc(b1-4)]Man(b1-4)GlcNAc(b1-4)GlcNAc
# How it was run: as §1
# [18] = biological target: Neu5Ac(a2-3)Gal(b1-4)GlcNAc(b1-3)Gal
# How it was run: as §1
# [19] = biological target: Neu5Ac(a2-3)Gal(b1-4)GlcNAc(b1-3)Gal(b1-3)GlcNAc
# How it was run: as §1
# [20] = biological target: Neu5Ac(a2-3)Gal(b1-4)GlcNAc(b1-3)Gal(b1-4)GlcNAc
# How it was run: as §1
# [21] = biological target: Neu5Ac(a2-3)Gal(b1-4)GlcNAc(b1-3)Gal(b1-4)GlcNAc(b1-2)Man(a1-3)[Neu5Ac(a2-3)Gal(b1-4)GlcNAc(b1-3)Gal(b1-4)GlcNAc(b1-2)Man(a1-6)]Man(b1-4)GlcNAc(b1-4)GlcNAc
# How it was run: as §1
# [22] = biological target: Neu5Ac(a2-3)Gal(b1-4)GlcNAc(b1-3)Gal(b1-4)GlcNAc(b1-3)Gal(b1-4)GlcNAc
# How it was run: as §1
# [23] = biological target: Neu5Ac(a2-3)Gal(b1-4)GlcNAc(b1-3)Gal(b1-4)GlcNAc(b1-3)Gal(b1-4)GlcNAc(b1-2)Man(a1-3)[Neu5Ac(a2-3)Gal(b1-4)GlcNAc(b1-3)Gal(b1-4)GlcNAc(b1-3)Gal(b1-4)GlcNAc(b1-2)Man(a1-6)]GalNAc
# How it was run: as §1
# [24] = biological target: Neu5Ac(a2-3)Gal(b1-4)GlcNAc(b1-3)Gal(b1-4)GlcNAc(b1-3)GalNAc
# How it was run: as §1
# [25] = biological target: Neu5Ac(a2-3)Gal(b1-4)GlcNAc(b1-3)Gal(b1-4)GlcNAc(b1-3)[Neu5Ac(a2-3)Gal(b1-4)GlcNAc(b1-3)Gal(b1-4)GlcNAc(b1-6)]GalNAc
# How it was run: as §1
# [26] = biological target: Neu5Ac(a2-3)Gal(b1-4)GlcNAc(b1-3)Gal(b1-4)GlcNAc(b1-6)[Gal(b1-3)]GalNAc
# How it was run: as §1
# [27] = biological target: Neu5Ac(a2-3)Gal(b1-4)GlcNAc(b1-3)Gal(b1-4)[Fuc(a1-3)]GlcNAc
# How it was run: as §1
# [28] = biological target: Neu5Ac(a2-3)Gal(b1-4)GlcNAc(b1-3)GalNAc
# How it was run: as §1
# [29] = biological target: Neu5Ac(a2-3)Gal(b1-4)GlcNAc(b1-3)[Neu5Ac(a2-3)Gal(b1-4)GlcNAc(b1-6)]GalNAc
# How it was run: as §1
# [30] = biological target: Neu5Ac(a2-3)Gal(b1-4)GlcNAc(b1-6)GalNAc
# How it was run: as §1
# [31] = biological target: Neu5Ac(a2-3)Gal(b1-4)GlcNAc(b1-6)[Gal(b1-3)]GalNAc
# How it was run: as §1
# [32] = biological target: Neu5Ac(a2-3)Gal(b1-4)GlcNAc(b1-6)[Neu5Ac(a2-3)Gal(b1-3)]GalNAc
# How it was run: as §1
# [33] = biological target: Neu5Ac(a2-3)Gal(b1-4)GlcNAc6S
# How it was run: as §1
# [34] = biological target: Neu5Ac(a2-3)Gal(b1-4)[Fuc(a1-3)]GlcNAc
# How it was run: as §1
# [35] = biological target: Neu5Ac(a2-3)Gal(b1-4)[Fuc(a1-3)]GlcNAc(b1-2)Man
# How it was run: as §1
# [36] = biological target: Neu5Ac(a2-3)Gal(b1-4)[Fuc(a1-3)]GlcNAc(b1-3)Gal
# How it was run: as §1
# [37] = biological target: Neu5Ac(a2-3)Gal(b1-4)[Fuc(a1-3)]GlcNAc(b1-3)Gal(b1-4)GlcNAc
# How it was run: as §1
# [38] = biological target: Neu5Ac(a2-3)Gal(b1-4)[Fuc(a1-3)]GlcNAc(b1-3)Gal(b1-4)[Fuc(a1-3)]GlcNAc(b1-3)Gal(b1-4)[Fuc(a1-3)]GlcNAc
# How it was run: as §1
# [39] = biological target: Neu5Ac(a2-3)Gal(b1-4)[Fuc(a1-3)]GlcNAc(b1-3)GalNAc
# How it was run: as §1
# [40] = biological target: Neu5Ac(a2-3)Gal(b1-4)[Fuc(a1-3)]GlcNAc(b1-6)[Gal(b1-3)]GalNAc
# How it was run: as §1
# [41] = biological target: Neu5Ac(a2-3)Gal(b1-4)[Fuc(a1-3)]GlcNAc(b1-6)[Neu5Ac(a2-3)Gal(b1-3)]GalNAc
# How it was run: as §1
# [42] = biological target: Neu5Ac(a2-3)Gal(b1-4)[Fuc(a1-3)]GlcNAc6S
# How it was run: as §1
# [43] = biological target: Neu5Ac(a2-3)Gal6S(b1-4)GlcNAc
# How it was run: as §1
# [44] = biological target: Neu5Ac(a2-3)Gal6S(b1-4)[Fuc(a1-3)]GlcNAc
# How it was run: as §1
binder,measurement,setting,value
PX15618A-bth-503-24-503 (Bacteroides thetaiotaomicron) (protein) NKSEDKLSGDDFWAQGNETNAEAFLLSIYNSFRNATMSQRPFLTYSGDMRCAPITAYSTGDKYVAYLANNDMGELRNTYPDDARGGLIMQWDVFYTAIQDANILLAEIDKVPGMDELKRSRFKAEAIFMRSLSYFFIVRAFGDVPYYTNAYNEAPLPRTNMVIVLQNCLADLQPLLDDDPGAEVLPWSYSSYSSKGIRASRGSVIALMMHINLWLVQFDAQNKEQYYRNVVSLGEELERNNGAYSLLDINRSSVIFAGGSDEGLFEIAQNINFNEIFMMNAKFSDNVSYSCLNKSMPLFCYSGDYLMTLFPMYEDDARKELWFDEKIYSTSVSSSAPKEIKKFWNIDTYGNGTITSNSGNQIVFRYAGALLLYAEALAALGTNDTKACELLNRVRNRAHASEINTSGSELMDAIFWERCRELIGEGHYYYDLVRTGKVYNRNYCMNPMTRTNFNVGAWTWPIHRNALKNNTQIGLNLFWE,glycan array binding signal (z-score),[1],-0.029
same,glycan array binding signal (z-score),[2],-0.39
same,glycan array binding signal (z-score),[3],0.158
same,glycan array binding signal (z-score),[4],-0.154
same,glycan array binding signal (z-score),[5],-0.238
same,glycan array binding signal (z-score),[6],0.335
same,glycan array binding signal (z-score),[7],0.09
same,glycan array binding signal (z-score),Neu5Ac(a2-3)Gal(b1-4)Glc,0.574
same,glycan array binding signal (z-score),[8],-0.425
same,glycan array binding signal (z-score),[9],0.676
same,glycan array binding signal (z-score),[10],-0.784
same,glycan array binding signal (z-score),[11],-0.078
same,glycan array binding signal (z-score),[12],-0.332
same,glycan array binding signal (z-score),[13],-0.098
same,glycan array binding signal (z-score),[14],-0.519
same,glycan array binding signal (z-score),[15],-0.189
same,glycan array binding signal (z-score),[16],-0.331
same,glycan array binding signal (z-score),[17],0.439
same,glycan array binding signal (z-score),[18],-0.371
same,glycan array binding signal (z-score),[19],-0.372
same,glycan array binding signal (z-score),[20],0.461
same,glycan array binding signal (z-score),[21],-0.217
same,glycan array binding signal (z-score),[22],-0.448
same,glycan array binding signal (z-score),[23],1.28
same,glycan array binding signal (z-score),[24],-0.707
same,glycan array binding signal (z-score),[25],0.194
same,glycan array binding signal (z-score),[26],0.584
same,glycan array binding signal (z-score),[27],-0.212
same,glycan array binding signal (z-score),[28],-0.683
same,glycan array binding signal (z-score),[29],0.114
same,glycan array binding signal (z-score),[30],-0.222
same,glycan array binding signal (z-score),[31],-0.251
same,glycan array binding signal (z-score),[32],-0.194
same,glycan array binding signal (z-score),[33],0.22
same,glycan array binding signal (z-score),[34],-0.216
same,glycan array binding signal (z-score),[35],-0.33
same,glycan array binding signal (z-score),[36],0.244
same,glycan array binding signal (z-score),[37],0.344
same,glycan array binding signal (z-score),[38],-0.317
same,glycan array binding signal (z-score),[39],-0.342
same,glycan array binding signal (z-score),[40],-0.258
same,glycan array binding signal (z-score),[41],0.684
same,glycan array binding signal (z-score),[42],-0.429
same,glycan array binding signal (z-score),[43],0.119
same,glycan array binding signal (z-score),[44],-0.433
